# From PubChem BioAssay AID493208 (National Center for Advancing Translational Sciences (NCATS), 2011)
# Hit rate of the full screen: of about 44,000 compounds, about 340 (0.77%) were called active. Another 5% or so got no clear call; they are omitted. Calls come from the whole dose curve; as a rule, active = well fitted inhibition curve with a large enough effect; inconclusive = small, poorly fitted or top-dose-only effect; inactive = flat fitted curve, though single readings scatter. The list shows a part of the results.
# Test: Acumen qHTS Assay for Inhibitors of the mTORC1 Signaling Pathway in MEF (Tsc2-/-, p53-/-) Cells: Sytravon;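 note: plate controls were DMSO for no effect and rapamycin for full effect; nearly all actives have a fitted effect of over 50% in size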
# Details: phospho-rpS6 immunofluorescence/PI, 24 h; series mostly up to 38.3 µM; activity change, negative = inhibition: at the top concentration
# In short: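 Plate MEFs (Tsc2-/-, p53-/-, empty vector) in DMEM/10% FBS; after 24 h add compound, incubate 24 h at 37 degree Celsius; fix in PFA/TX-100, block, stain phospho-rpS6 and 10 uM PI; scan at 488 nm; report % positive cells.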
row,SMILES,"activity change, negative = inhibition"
1,O=S(=O)(NCCc1csc2nc(-c3ccccc3)nn12)c1ccc(Oc2ccccc2)cc1,inactive: -5.73%
2,CCOC(=O)c1cc2c(=O)n3ccccc3nc2n(Cc2ccco2)c1=NC(=O)c1cccc(Br)c1,inactive: -5.13%
3,Cc1ccc(Cl)cc1N1CCN(C(=O)c2noc3c2CCCC3)CC1,inactive: 2.04%
4,Cc1ccc(-n2nnnc2CNC(=O)C2CC(=O)N(c3ccccc3)C2)cc1C (stereo unspecified),inactive: 2.86%
5,COc1ccc(Cl)cc1NC(=O)Cn1nnc2sc(-c3ccccc3)cc2c1=O,inactive: -1.61%
6,COc1ccc(CCNC(=O)CCCCn2c(=O)c3ccccc3n(Cc3ccccc3)c2=O)cc1OC,inactive: -24.4%
7,Fc1ccccc1N1CCN(c2ncnc3c2nc2n3CCCC2)CC1,inactive: 1.06%
8,CCOC(=O)c1ccc(NC(=O)CSc2ncc(S(=O)(=O)c3ccc(C)c(Cl)c3)c(=O)[nH]2)cc1,inactive: -5.76%
9,CCCCN(C)c1nnc(NC(=O)Nc2ccc(Br)c(C)c2)s1,inactive: -1.3%
10,CCn1cc2nc(SCC(=O)Nc3ccc(OC)cc3OC)n(Cc3ccc(Cl)cc3)c(=O)c2n1,inactive: -4.17%
11,CCOCCc1nn2c(=O)cc(COC(=O)c3ccccc3NC(=O)c3ccc(C)cc3)nc2s1,inactive: 25.5%
12,CCOc1ccc(NC(=O)Cn2cc(C(=O)c3ccc(C)cc3)c(=O)c3cc4c(cc32)OCO4)cc1,inactive: -3.85%
13,CCc1ccc(CN(Cc2ccco2)C(=O)c2cc(-c3ccc(C)c(F)c3)on2)cc1,inactive: -6.99%
14,CCn1c2c(c(=O)n3ncc(C(=O)Nc4ccc(Cl)cc4C)c13)CN(Cc1ccc(OC)cc1)CC2,inactive: 3.41%
15,Brc1cccc(-c2nnn3c2nc(N2CCCCC2)c2ccccc23)c1,inactive: -19.6%
16,Cc1ccc2nc3c(c(Nc4ccc(C)c(C)c4)c2c1)CCC3,inactive: -9.75%
17,O=C(CNS(=O)(=O)c1cccs1)N1CCN(c2ccccc2F)CC1,inactive: -1.96%
18,CCCn1c(=O)c2sccc2n2c(CCCC(=O)NC3CCCCC3)nnc12,inactive: 0.385%
19,Cc1ccc(F)cc1S(=O)(=O)N1CCC(c2nc3ccccc3s2)CC1,inactive: -12.6%
20,Cc1ccccc1Cn1c(C)c(CNCCCc2ccccc2)c(C(=O)O)c1C,inactive: 0.169%
21,COc1ccc(C2C=C(c3ccc(Cl)cc3)Nc3nc(NC(=O)CCC(=O)O)nn32)cc1 (stereo unspecified),inactive: -0.547%
22,O=c1c2sc3ccccc3c2n(Cc2ccc(Cl)cc2)c(=O)n1Cc1ccco1,inactive: 2.97%
23,COc1ccc(-c2csc3nc(-c4ccc(C)cc4)oc(=O)c23)cc1OC,inactive: -1.54%
24,Cc1ccc(NC(=O)CCc2nc3cccnc3n2-c2ccccc2)cc1Cl,inactive: 2.28%

row,SMILES,"activity change, negative = inhibition"
1,Cc1ccc(N(Cc2cccs2)C(=O)c2ccccc2[N+](=O)[O-])cc1,inactive: -8.08%
2,CCC(C)NC(=O)Cn1c(=O)c2cccn2c2ccc(F)cc21 (stereo unspecified),inactive: 1.91%
3,CCCOc1cccc(C(=O)N2CCCCC2CCN2CCCCC2)c1 (stereo unspecified),inactive: -9.71%
4,O=C(Nc1ccc(F)cc1Cl)c1cnc(N2CCOCC2)c2ccccc12,inactive: 0.359%
5,COc1cccc(CNC(=O)c2cc(=O)[nH]c3ccc(S(=O)(=O)N4CCCC4)cc23)c1,inactive: 0.175%
6,Cc1ccccc1NC(=O)CCn1nc(-c2ccc(Cl)cc2)c2ccccc2c1=O,inactive: 8.53%
7,COc1ccc(CNC(=O)CC2Oc3ccc(C)cc3NC2=O)cc1 (stereo unspecified),inactive: -1%
8,Cc1ccc(S(=O)(=O)N2CCc3cc(C(=O)Nc4c(C)cccc4C(C)C)ccc32)cc1,inactive: -3.21%
9,COc1cccc(CC(=O)Nc2ccc3nc(Nc4cccc(C(F)(F)F)c4)cc(C)c3c2)c1,inactive: -7.77%
10,COC(=O)c1cc2oc3ccccc3c2n1CC(=O)Nc1ccc(F)c(Cl)c1,inactive: -7.64%
11,CCOc1ccc(CCNC(=O)c2nn(C)c3c2CSc2ccc(C)cc2-3)cc1OCC,inactive: 12.3%
12,COc1ccc(CCNc2nc(SCc3cccc(Cl)c3)nc3ccccc23)cc1OC,inactive: -1.3%
13,Cc1cccc(Cn2c(CN3CCCC(C)C3)nc3c2c(=O)n(C)c(=O)n3C)c1 (stereo unspecified),inactive: 2.35%
14,O=C(NCc1ccccc1)c1nc(-c2ccc(Cl)cc2)n2c1CCCCC2,inactive: -1.62%
15,Clc1ccc2nc(-c3cccs3)c(Nc3ccc4c(c3)OCCO4)n2c1,inactive: 0.164%
16,CCOC(=O)c1cc(OC(=O)c2cc(OC)cc(OC)c2)n(-c2ccccc2)n1,inactive: 3.26%
17,CCc1nonc1NC(=O)c1oc2ccc(Cl)cc2c1C,inactive: 2.82%
18,CCOC(=O)c1c(NC(=O)CSc2cn(CCNC(=O)c3ccc(OCC)cc3)c3ccccc23)sc2c1CCC2,inactive: 1.64%
19,Cc1ccc(Cl)cc1NC(=O)Cn1c(SCC(=O)NCc2ccccc2)nc2ccccc21,inactive: 1.21%
20,CC1Cc2cc(S(=O)(=O)NCc3ccccc3)ccc2N1C(=O)C1CCC1 (stereo unspecified),inactive: -13.6%
21,CC1=C(C(=O)OC2CCCCCC2)C(c2ccc(Cl)cc2Cl)CC(=O)N1 (stereo unspecified),inactive: -8.24%
22,CC(C)(C)c1ccccc1NC(=O)c1cnn2c(C(F)F)cc(-c3ccccc3)nc12,inactive: -4.25%
23,COc1ccccc1NC(=O)CSc1oc(-c2ccc(F)cc2)nc1S(=O)(=O)c1ccc(Br)cc1,inactive: -12.4%
24,CCOC(=O)c1cnc(N2CCN(c3ccc(C)cc3C)CC2)c2ccccc12,inactive: -8.23%

row,SMILES,"activity change, negative = inhibition"
1,Cn1c(=O)c2c(SCC(=O)Nc3ccc(F)cc3F)nc(C3CCCC3)nc2n(C)c1=O,inactive: 8.97%
2,CSc1cccc(NC(=O)CN2C(=O)COc3ccc(S(=O)(=O)N4CCC(C)CC4)cc32)c1,inactive: -11.3%
3,Cc1ccc(C)c(NC(=O)Cn2ccn(-c3ccc(F)cc3)c(=O)c2=O)c1,inactive: -4.42%
4,Cc1ccccc1CNC(=O)c1ccc2[nH]c(C)c(C)c2c1,inactive: -6.9%
5,Cc1ccc(-c2nc3c4ccccc4n(CC(=O)N4CCN(c5ccc(F)cc5)CC4)c(=O)n3n2)cc1,inactive: -11.5%
6,Cc1cc(C)cc(Nc2cc(C)nc3nc(-c4ccco4)nn23)c1,inactive: 11.7%
7,Cc1cc(N2CCC(C(=O)NCCC(C)C)CC2)n2nc(C)c(-c3ccc(Cl)cc3)c2n1,inactive: 0.218%
8,Cc1ccc(CN(C(=O)c2ccccc2[N+](=O)[O-])c2ccccn2)cc1,inactive: -0.656%
9,CCC(C)NC(=O)Cn1c(-c2cccs2)cc2cc(Cl)ccc21 (stereo unspecified),inactive: 0.449%
10,CCOC(=O)c1c(NC(=O)c2cc(-c3ccc(Cl)cc3)on2)sc(C)c1C,inactive: -1.24%
11,Cc1ccc(Cl)cc1NC(=O)Cn1ncc2c(C)n(Cc3ccccc3F)c(C)c2c1=O,inactive: 1.22%
12,CC(C)(C)NC(=O)c1ccc2nc(CCc3ccccc3)oc2c1,inactive: -2.83%
13,CC1CN(C(=O)CCC(=O)NCc2ccccc2)c2cc(Cl)ccc2O1 (stereo unspecified),inactive: 0.573%
14,COc1ccc(-c2nc(-c3ccccc3)c(-c3ccc(F)cc3)[nH]2)c(OC)c1C,inactive: -5.64%
15,Cc1cc(C)cc(N2C(=O)CCSC23C(=O)N(Cc2ccccc2)c2ccccc23)c1 (stereo unspecified),inactive: 3.81%
16,CCOc1ccc(CCNC(=O)c2ccc3c(c2)sc2nc(-c4ccc(F)cc4)cn23)cc1OCC,inactive: -3.54%
17,O=S(=O)(NCCc1csc2nc(-c3ccc(F)cc3)nn12)c1ccc(Oc2ccccc2)cc1,inactive: 0.166%
18,Cc1ccc(C(CC(=O)Nc2ccc(F)c(Cl)c2)N2Cc3ccccc3C2=O)cc1 (stereo unspecified),inactive: 0%
19,CC(C)c1ccc(NC(=O)CCn2c(=O)c3cccn3c3ccccc32)cc1,inactive: 2.19%
20,COc1cccc(CNCCSc2nnnn2C)c1OCc1ccc(F)cc1,inactive: -7.43%
21,Cc1ccc(N2CC(NC(=O)C3CC3)CC2=O)cc1C (stereo unspecified),inactive: -1.67%
22,CCOC(=O)c1ccn(-c2nc(-c3cccc(OC)c3)cc(C(F)(F)F)n2)n1,inactive: -7.57%
23,Cc1nc2sccn2c(=O)c1S(=O)(=O)Nc1ccc(N2CCN(C(=O)C(C)C)CC2)cc1,inactive: -5.51%
24,COc1cc(C(=O)Nc2nonc2-c2ccc(Cl)cc2)cc(OC)c1OC,inactive: 1.4%

row,SMILES,"activity change, negative = inhibition"
1,CCOC(=O)c1[nH]c(C)c(CCC(=O)Nc2ccc(Br)c(C)c2)c1C,inactive: -13.5%
2,Cn1nnnc1SCCCNCc1cc(Cl)ccc1OCc1ccccc1F,inactive: -8.72%
3,CCCCCc1nn2cc(-c3ccccc3)nc2s1,inactive: 1.58%
4,Cc1ccc(NC(=O)Cn2cnc3sc(C)c(S(=O)(=O)N4CCN(c5ncccn5)CC4)c3c2=O)cc1F,inactive: 3.26%
5,COC(=O)c1ccc(NC(=O)CC2C(=O)N(c3ccccc3)C(=O)N2Cc2ccco2)cc1 (stereo unspecified),inactive: -7.16%
6,Cc1cccc(N2CCN(S(=O)(=O)c3c(C(=O)N4CCC(C)CC4)c(C)n(C)c3C)CC2)c1C,inactive: 20.5%
7,COc1ccc(NC(=O)CSC2=Nc3ccccc3C3=NC(CC(=O)NCc4ccc5c(c4)OCO5)C(=O)N23)cc1 (stereo unspecified),inactive: -3.89%
8,CCOc1ccc(C(c2c(O)cc(C)n(Cc3ccco3)c2=O)N2CCN(c3ccccc3)CC2)cc1 (stereo unspecified),inactive: 7.23%
9,CCCc1cnc2c(c1SCC(=O)Nc1ccccc1F)c(=O)n(C)c(=O)n2C,inactive: -3.7%
10,Cc1cccc(CNC(=O)C2CCN(S(=O)(=O)c3ccc4c(c3)CCCN4C(=O)C3CCC3)CC2)c1,inactive: -5.52%
11,Cc1ccc(C2C=C(c3ccc(Cl)cc3)Nc3nc(NC(=O)c4ccco4)nn32)cc1 (stereo unspecified),inactive: -26.2%
12,COc1cc(Nc2ncc3c(n2)CCN(Cc2cc(F)cc(F)c2)C3)cc(OC)c1,inactive: 3.06%
13,CCCC12CN3CC(CCC)(CN(C1)C3c1c(C)[nH]c(=O)[nH]c1=O)C2=O (stereo unspecified),inactive: -0.847%
14,CCc1nn(Cc2c(C)cc(C)cc2C)c(=O)c2cc3cc(C)ccc3n12,inactive: -2.88%
15,CCOc1ccccc1NC(=O)c1nn(C)c2c1CSc1ccccc1-2,inactive: -19.1%
16,COc1ccc(C)cc1NC(=O)CN1C(=O)COc2ccc(S(=O)(=O)NC3CCCC3)cc21,inactive: 2.78%
17,CCOc1ccc(-c2csc(-c3c(N)c(C(=O)c4ccc5c(c4)OCO5)n4ccccc34)n2)cc1,inactive: -5.56%
18,Cn1nc(-c2ccc(N3CCCCC3)c(NC(=O)c3ccc(Cl)cc3)c2)c2ccccc2c1=O,inactive: -7.9%
19,Cc1ccccc1CSc1nc2c([nH]c3ccccc32)c(=O)n1C,inactive: 0.244%
20,CCOC(=O)c1cc(S(=O)(=O)Nc2ccccc2OCC)[nH]n1,inactive: -6.38%
21,COc1ccc(-n2c(=O)c3c4c(sc3n3c(SC(C)C)nnc23)COC(C(C)C)C4)cc1 (stereo unspecified),inactive: -0.173%
22,CCCc1cc(=O)[nH]c(SCc2nc(-c3ccccc3F)no2)n1,inactive: -0.484%
23,CC(=O)c1cccc(Nc2ccc3cc(S(=O)(=O)N4CCCC4)ccc3n2)c1,inactive: 0.834%
24,COc1ccc(NC(=O)c2cc(=O)c3ccc(C)c(C)c3o2)cc1Cl,inactive: 0.796%
